Measured values from PubChem BioAssay AID1030 (National Center for Advancing Translational Sciences (NCATS), 2008).
Several values for one entry are separate records, joined by “and”; a condition that tells them apart may be missing. Equal entries are not always repeated. The campaign covered roughly 220,000 compounds. About 16,000 (7.3%) were called active. Inconclusive results, whose numbers are uncertain, are shown with a selection of clear calls. Calls come from the whole dose curve; as a rule, active = well fitted inhibition curve with a large enough effect (not every such curve was filed as active); inconclusive = small, poorly fitted or top-dose-only effect, or another doubt; inactive = no such curve, though single readings can be large or run the other way. Potencies of inconclusive entries are doubtful fits and often do not repeat.

These compounds were tested against Aldehyde dehydrogenase 1A1 (Homo sapiens) (UniProt P00352) (assay: qHTS Assay for Inhibitors of Aldehyde Dehydrogenase 1 (ALDH1A1)). Settings: Purified ALDH1A1, NADH fluorescence, propionaldehyde substrate; series mostly up to 75.3 µM.
Potency is the fitted concentration of half-maximal effect; tags give direction and shape of the fitted curve.
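Throughout, for activity, negative = inhibition: plate controls were no enzyme wells and a reference inhibitor.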

Sequence of UniProt P00352 (P00352 whole entry, looked up): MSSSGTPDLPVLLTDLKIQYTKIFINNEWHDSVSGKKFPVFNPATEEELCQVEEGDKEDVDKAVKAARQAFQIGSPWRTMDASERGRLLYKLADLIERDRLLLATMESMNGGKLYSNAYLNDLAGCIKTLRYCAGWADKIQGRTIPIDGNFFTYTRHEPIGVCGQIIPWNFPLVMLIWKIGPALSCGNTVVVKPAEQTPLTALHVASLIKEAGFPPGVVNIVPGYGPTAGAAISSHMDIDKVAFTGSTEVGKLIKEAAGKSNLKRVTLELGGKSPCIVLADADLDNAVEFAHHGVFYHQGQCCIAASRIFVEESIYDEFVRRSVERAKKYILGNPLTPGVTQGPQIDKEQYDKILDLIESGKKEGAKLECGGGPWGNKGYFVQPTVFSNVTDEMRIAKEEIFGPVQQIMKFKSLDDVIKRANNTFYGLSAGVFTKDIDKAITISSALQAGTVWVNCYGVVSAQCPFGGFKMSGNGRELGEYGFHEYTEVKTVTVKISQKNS

Structure (SMILES)	Potency	activity, negative = inhibition
COc1ccc(CCNCc2ccc(C)s2)cc1OC	inactive	
CCCC/C=C/[C@@H](NP(=O)(c1ccccc1)c1ccccc1)c1ccccc1OC	inactive	
COC(=O)Nc1cccc(OC(=O)Nc2cccc(C)c2)c1	inconclusive: 23.8 µM [inhibitor, partial curve, poor fit]	
CS(=O)(=O)N1CCC2(CC1)CN(Cc1ccncc1)C2	inconclusive: 39.8 µM [inhibitor, single point]	
O=Cc1cn(Cc2ccc(F)cc2)c2ccccc12	active: 0.126 µM	
Cc1ccc(NC(=O)O/N=C/c2cccc([N+](=O)[O-])c2)cc1	inconclusive: 29.9 µM [inhibitor, single point]	
O=c1cccc2n1CC1CC2CN(Cc2cccc(Cl)c2Cl)C1 (stereo not given)	inconclusive: 39.8 µM [inhibitor, single point]	
O=C1NC(=O)N(c2ccc(F)cc2)C(=O)/C1=C/c1ccc2c(c1)CCCN2Cc1ccccc1	active: 0.158 µM	
CCOC(=O)CNC(=O)CSP(=S)(OCC)OCC	inconclusive: 5.01 µM [inhibitor, single point]	
Cc1ccc(C2=[N+]([O-])C3(CCCCC3=O)N(O)C2(C)C)cc1 (stereo not given)	inconclusive: 39.8 µM [inhibitor, single point]	
c1cc(OCC2CO2)cc(OCC2CO2)c1 (stereo not given)	inconclusive: 22.4 µM [inhibitor, partial curve]	
Cc1ccc(S(=O)(=O)NCC2CCC(C(=O)NCCCN3CCOCC3)CC2)cc1 (stereo not given)	active: 22.4 µM	
Oc1ccc(Br)cc1CN1CCN(c2ccccc2)CC1	inactive	
CCOP(=S)(OCC)SCSC(C)(C)C	inconclusive: 25.1 µM [inhibitor, single point]	
Cn1c(O)c(C=NCCCC(=O)O)c(=O)n(C)c1=O	inactive	
CCN(CC)C(=O)c1ccc(NC(=O)c2cc(-n3cnnc3)ccc2Cl)cc1	active: 25.1 µM	
O=C(CCCN1CCC2(CC1)C(=O)N(Cc1cccc(F)c1)CN2c1ccccc1)c1ccc(F)cc1	inactive	
CCOC(=O)c1ccc(-n2c(N)c(C(=O)NCC3CCCO3)sc2=S)cc1 (stereo not given)	active: 3.98 µM	
CCC(C)n1c(O)c(/C=N/Nc2ccccc2)c(=O)[nH]c1=S (stereo not given)	active: 3.55 µM	
c1ccc2c(c1)[nH]c1cnccc12	inconclusive: 31.6 µM [inhibitor, single point] and inconclusive: 35.5 µM [inhibitor, partial curve]	
O=C(O)C(Br)Br	inconclusive: 44.7 µM [inhibitor, single point]	
N#CC(C#N)=Cc1ccc([N+](=O)[O-])c(O)c1	active: 8.91 µM and active: 2 µM and active: 15.8 µM	
CCCCCCCCCCCCCl	inactive	
COc1ccc(CCn2c(O)c(C=Nc3ccc(F)cc3)c(=O)[nH]c2=O)cc1OC	inconclusive: 44.7 µM [inhibitor, single point]	
NNC(=O)c1nn(-c2ccccc2)cc1O	inconclusive: 28.2 µM [inhibitor, single point]	

Structure (SMILES)	Potency	activity, negative = inhibition
CCCCOC(C)=O	inconclusive: 18.9 µM [inhibitor, partial curve]	
O=S1(=O)N(CCN2CC=C(c3c[nH]c4cc(F)ccc34)CC2)c2cccc3c2N1CCC3	active: 25.1 µM	
Clc1ccccc1CNC1CN2CCC1CC2 (stereo not given)	inactive	
CC(=O)OC1C[C@]2(C)C(C(C)=O)CCC2C2CCC3=CC(=O)CC[C@@]3(C)C12 (stereo not given in full)	inconclusive: 12.6 µM [inhibitor, partial curve]	
NC[C@H](CS(=O)(=O)O)c1ccc(Cl)cc1	inactive	
CCC(C)N=Cc1c(O)n(-c2ccccc2)c(=O)[nH]c1=O (stereo not given)	inconclusive: 25.1 µM [inhibitor, single point]	
Cc1nc2ccc(Cl)cn2c1P(=S)(N1CCOCC1)N1CCOCC1	inactive	
O=C(O)C(C(=O)O)P(=S)(S)c1ccccc1 (stereo not given)		inactive: 8.32% [at 13.5 µM]
COc1cccc(N2C(=O)NC(=O)C3(Cc4cc(C)ccc4N(C)C3)C2=O)c1 (stereo not given)	active: 20 µM	
C#CCN1C(=O)S/C(=C\c2ccc(N3CCOCC3)cc2C)C1=O	inconclusive: 3.16 µM [inhibitor, partial curve]	
COc1ccc(CCn2c(O)c(/C=N/N3CCCCC3)c(=O)[nH]c2=O)cc1OC	inconclusive: 39.8 µM [inhibitor, single point]	
C=CCc1c(C)nc(C)nc1N/N=C/c1ccc(N(C)C)cc1	inconclusive: 22.4 µM [inhibitor, partial curve]	
O=C(O)[C@H]1[O][Sb][O][C@@H](C(=O)O)C1O (stereo not given in full)		inactive: 8.64% [at 13.5 µM]
CN1CCN(c2ccc(C=O)cc2)CC1	active: 12.6 µM	
O=C1NC(=O)C(=Cc2cc3c(cc2[N+](=O)[O-])OCO3)C(=O)N1	active: 15.8 µM	
O=C1NC(=O)N(c2ccc(F)cc2)C(=O)/C1=C/c1ccc(N2CCOCC2)cc1	active: 3.98 µM	
COc1ccc(N2C(=O)CS(=O)C(c3ccccc3)C2=O)cc1 (stereo not given)	active: 1.12 µM	
COc1cc2c(c(OC)c1OC)-c1ccc(O)c(=O)cc1[C@H](N)CC2	inactive	
CC(N)c1cccc(Cl)c1Cl (stereo not given)	inconclusive: 17.8 µM [inhibitor, single point]	
O=C1NC(=O)C(=Cc2ccc(OCC(=O)N3CCOCC3)cc2)C(=O)N1	active: 5.01 µM	
Fc1ccccc1N1CCN(Cc2c(F)cccc2F)CC1	inconclusive: 39.8 µM [inhibitor, single point]	
CCCNC(=O)c1c(N)n(CC2CCCO2)c2nc3ccccc3nc12 (stereo not given)	inconclusive: 31.6 µM [inhibitor, partial curve]	
CCCCCn1c(Sc2ccccc2)nc2c1c(=O)[nH]c(=O)n2C	inconclusive: 14.1 µM [inhibitor, partial curve, poor fit]	
CN[C@@H](CC(C)C)C(=O)N[C@@H]1C(=O)N[C@H](CC(N)=O)C(=O)N[C@@H]2C(=O)N[C@H]3C(=O)N[C@H](C(=O)N[C@H](C(=O)O)c4cc(O)cc(O)c4-c4cc3ccc4O)[C@H](O)c3ccc(c(Cl)c3)Oc3cc2cc(c3O[C@H]2O[C@@H](CO)[C@@H](O)[C@@H](O)[C@@H]2O[C@@H]2C[C@](C)(N)[C@H](O)[C@H](C)O2)Oc2ccc(cc2Cl)[C@@H]1O	inactive	
O=C1Nc2ccc(Cl)cc2C(c2ccccc2)=NC1O (stereo not given)	inactive	

Structure (SMILES)	Potency	activity, negative = inhibition
S=c1[nH]nc(-c2ccccc2)n1C1C=CCCC1 (stereo not given)	inconclusive: 15.8 µM [inhibitor, partial curve, poor fit]	
CCCCC/C=C\C/C=C\C/C=C\C/C=C\CCCC(=O)NCc1ccoc1	active: 17.8 µM	
CCc1c(C(=O)OC)ncc2[nH]c3cc(OC)c(OC)cc3c12	inconclusive: 39.8 µM [inhibitor, single point]	
CCCCn1c(O)c(C(CC)=NC(C)c2ccccc2)c(=O)[nH]c1=O (stereo not given)	inactive	
CN1CCN(c2ccc(S(=O)(=O)C(F)(F)F)cc2[N+](=O)[O-])CC1	inactive	
O=C1C2CCCN2C(c2cccnc2)N1c1ccc(Cl)cc1 (stereo not given)	inconclusive: 37.7 µM [inhibitor, single point]	
Cc1ccc(C)c(OCC(=O)N2CCCN(C)CC2)c1	inactive	
Cc1cc(C=C2C(=O)N(C)C(=S)N(C)C2=O)c(C)n1-c1ccncc1	inconclusive: 23.8 µM [inhibitor, single point]	
COc1ccc2[nH]c(C)c(CCNCc3cc(OC)c(OC)c(OC)c3)c2c1	inconclusive: 39.8 µM [inhibitor, single point]	
C#CCOc1cc(C2C3=C(COC3=O)Nc3cc4c(cc32)OCO4)ccc1OC (stereo not given)	inconclusive: 35.5 µM [inhibitor, single point]	
CCOc1ccc(Oc2nc(NCC(C)C)nc(N(C)C)n2)nn1	inconclusive: 39.8 µM [inhibitor, single point]	
O=c1[nH]c(=O)n(Cc2ccccc2)c(O)c1C=Nc1ccc(CN2CCOCC2)cc1	active: 14.1 µM	
O=C1NC(=O)C(=Cc2ccc(SC3CCCCC3)o2)C(=O)N1	active: 25.1 µM	
Cc1ccccc1C(=O)NNC(=S)NC(=O)COc1ccccc1	active: 7.08 µM	
O=C(C[N+]12CCN(CC1)CC2)NCCc1ccc(Cl)cc1Cl	inconclusive: 39.8 µM [inhibitor, single point]	
COc1cc2[nH]c(=O)n(Cc3ccc(C(=O)NC4CCCC4)cc3)c(=O)c2cc1OC	inconclusive: 35.5 µM [inhibitor, single point]	
COCCN1C(=O)NC(=O)/C(=C\c2ccc(Br)cc2)C1=O	inconclusive: 25.1 µM [inhibitor, single point]	
Cc1cnc[nH]1	active: 0.282 µM	
NC(N)=N/N=C/c1ccc(N2CCOCC2)cc1	inconclusive: 22.4 µM [inhibitor, partial curve]	
O=[N+]([O-])c1ccc(N2CCCC2)c(F)c1Br	inconclusive: 39.8 µM [inhibitor, single point]	
Cc1ccc(-n2nnnc2SCC(=O)Nc2sc(C)c(C)c2C#N)cc1C	active: 15.8 µM	
COC(=O)c1ccc(Cl)c(NC(=O)CN2CCN(Cc3ccccc3)CC2)c1	inconclusive: 39.8 µM [inhibitor, single point]	
C=CCN1C(=O)NC(=O)/C(=C/c2cc3c4c(c2)CCCN4CCC3)C1=O	active: 0.891 µM	
CNC(=O)Oc1ccc2c(c1)C(=O)c1ccccc1CO2	active: 11.2 µM	
c1ccc2c(c1)c1cccc3ccc4cccc2c4c31	inconclusive: 12.6 µM [inhibitor, partial curve]	
